Results: PubChem BioAssay AID1745845 (National Center for Advancing Translational Sciences (NCATS), 2022)
In all, about 360,000 compounds went through this assay and about 2,600 (0.72%) were called active. The shares of active, inactive and inconclusive entries below differ from those in the screen. Calls come from the whole dose curve; as a rule, active = well fitted inhibition curve with a large enough effect; inconclusive = small, poorly fitted or top-dose-only effect; inactive = no such curve, though single readings can be large or run the other way. Potencies beside an inconclusive call are fits to weak or partial responses and may not hold up.

test: Primary qHTS for Inhibitors of ATXN expression; conditions: HEK-293 ATXN2-luciferase reporter, luminescence, 24 h; series mostly up to 57 µM; note: nearly all actives have a fitted effect of over 55% in size
Method in brief: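 qHTS (up to 57 uM final) was run with 24 h compound exposure of reporter cells at 37 °C. Each well was multiplexed: SteadyGlo luminescence measured ATXN2-luciferase expression after a fluorogenic Gly-Phe-AFC viability readout (25 uM final).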
Potency is the fitted concentration of half-maximal effect; tags give direction and shape of the fitted curve.

Structure (SMILES)	Potency
Cc1ccccc1NC(=S)NCc1ccc2c(c1)cc(C)n2C	inconclusive: 37.7 µM [inhibitor, single point]
COc1ccc(C(=O)Nc2nc3cc(OC)c(OC)cc3c(=O)[nH]2)cc1	inconclusive: 28.2 µM [inhibitor, single point]
CC(C)CN(CC(C)C)S(=O)(=O)c1ccc(C(=O)Nc2sc3c(c2C(N)=O)CCN(C(C)C)C3)cc1	inconclusive: 35.5 µM [inhibitor, single point]
COc1ccc2ccccc2c1CNCc1ccc(C)cc1	inconclusive: 3.98 µM [inhibitor, partial curve, poor fit]
COc1ccc(OS(=O)(=O)c2c(C)noc2C)cc1	inactive
c1ccc(-c2nnc(-c3ccccn3)nc2NC2CCCCC2)cc1	inconclusive: 2.24 µM [inhibitor, full curve, poor fit]
Cc1ccnc(NC(c2cccnc2)c2ccc3cccnc3c2O)c1 (stereo not given)	inconclusive: 25.1 µM [inhibitor, single point]
O=C(Nc1nc(-c2cc(Cl)sc2Cl)cs1)c1cccs1	inconclusive: 37.7 µM [inhibitor, single point]
CCCN1CCN(C(=O)Cn2ncc3c4ccccc4n(Cc4cccc(Cl)c4)c3c2=O)CC1	inactive
COc1cccc(N2CCN(c3ncnc4c3[nH]c3ccc(F)cc34)CC2C)c1 (stereo not given)	active: 3.55 µM
CC(=S)/C=C1\Sc2ccccc2N1C	inactive
COc1cc(/C=C2\CC(C(C)(C)C)C/C(=C\c3cc(OC)c(OC)c(OC)c3)C2=O)cc(OC)c1OC (stereo not given)	inconclusive: 39.8 µM [inhibitor, single point]
CCC(C)[C@H]1CNC(=S)N1CCc1cc(C(F)(F)F)cc(C(F)(F)F)c1 (stereo not given in full)	inconclusive: 31.6 µM [inhibitor, single point]
O=C1C=C(NCCc2cc(Br)c(O)c(Br)c2)C(=O)c2ncccc21	active: 9.47 µM
CN(C)CCCNS(=O)(=O)c1ccc(N2CCN(Cc3ccc4c(c3)OCO4)CC2)c([N+](=O)[O-])c1	inconclusive: 35.5 µM [inhibitor, partial curve, poor fit]
Cc1ccc(-n2ncc3c(N4CCCCC4)ncnc32)cc1	inconclusive: 3.98 µM [inhibitor, full curve, poor fit]
Cc1ccc(-n2cnc3c(=O)[nH]cnc32)cc1	inactive
CCCOc1ccc(C(=O)NCCc2ccccc2)cc1	inconclusive: 25.1 µM [inhibitor, single point]
COc1ccc2oc(=N)c(C(=O)Nc3cccc(C)c3C)cc2c1	inactive
Cc1ccccc1NC(=O)Cc1nnc(NC(=O)Nc2ccccc2F)s1	inconclusive: 10 µM [inhibitor, partial curve, poor fit]

Structure (SMILES)	Potency
O=C1C=C(c2cnc3ccccc3c2)C[C@@H](c2ccc3c(c2)OCO3)C1	inconclusive: 39.8 µM [inhibitor, single point]
CCOC(=O)c1cnc(-n2nc(C)cc2C)nc1Nc1ccc(N(C)C)cc1	inconclusive: 17.8 µM [inhibitor, partial curve, poor fit]
CC(NC(=O)/C(C#N)=C/c1ccc([N+](=O)[O-])o1)c1ccccc1 (stereo not given)	inconclusive: 35.5 µM [inhibitor, single point]
Cn1c(NCc2ccco2)nc2c1c(=O)n(Cc1ccc(Cl)c(Cl)c1)c(=O)n2C	inconclusive: 31.6 µM [inhibitor, single point]
Cc1ccc(C(=O)c2sc(Nc3ccc(F)cc3)nc2N)c(C)c1	inconclusive: 20 µM [inhibitor, partial curve]
CC(C)CC1C(=O)N(Cc2cn(Cc3ccco3)nn2)CCS(=O)(=O)N1Cc1ccc(-c2ccc(Cl)c(Cl)c2)cc1 (stereo not given)	inconclusive: 31.6 µM [inhibitor, single point]
N=c1n(CCO)c2ccccc2n1CCOc1ccc(Cl)cc1Cl	active: 20 µM
CC(C)C[C@H]1CNC(=S)N1CC1CCCN1C[C@H](CC(C)C)N1C[C@H](CC(C)C)N(CCc2ccccc2)C1=S (stereo not given in full)	inconclusive: 4.47 µM [inhibitor, full curve, poor fit]
CCn1c2ccccc2c2cc(/C=N/NC(=O)c3ccc(O)cc3)ccc21	inconclusive: 2.99 µM [inhibitor, full curve]
COc1ccc(NC(=O)C2Cc3c(-c4ccccc4)ccnc3O2)cc1OC (stereo not given)	inconclusive: 7.94 µM [inhibitor, partial curve, poor fit]
CCCCNc1c(-c2ccc(SC(C)CC)cc2)nc2cnccn12 (stereo not given)	inconclusive: 39.8 µM [inhibitor, single point]
CC(=O)Nc1ccc(CNc2nc(NCCN(C)C)nc3cc(-c4ccccc4)sc23)cc1	inconclusive: 25.1 µM [inhibitor, single point]
Cc1ccc(C(=O)Nc2ccccc2-c2ccccc2)cc1S(=O)(=O)Nc1ccccc1	inconclusive: 14.1 µM [inhibitor, single point]
Cc1ccc2c(c1)[C@H]1[C@H](CO2)[C@H](c2ccccc2)[C@]2(C)C(=O)Nc3cc(F)c(F)cc3C(=O)N12	inconclusive: 35.5 µM [inhibitor, partial curve, poor fit]
CCOC(=O)C1=C(C)NC2=C(C(=O)CC(c3cccs3)C2)C1c1cccs1 (stereo not given)	inactive
CN(c1cccc(NC(=O)c2ccc(C(C)(C)C)cc2)c1)S(C)(=O)=O	inconclusive: 39.8 µM [inhibitor, single point]
CCCN1CCN(c2ncnc3sc(C(=O)Nc4cccc(Cl)c4C)c(C)c23)CC1	inconclusive: 39.8 µM [inhibitor, single point]
O=C(NCCc1ccc(Cl)cc1)c1nc(-c2cccc(F)c2)n2c1CCCCC2	inconclusive: 25.1 µM [inhibitor, single point]
COc1ccc2nc(SCC(=O)N3CC(=O)Nc4ccccc43)c(C#N)cc2c1	inconclusive: 6.31 µM [inhibitor, partial curve]
CC(=O)c1cccc(NC(=O)c2ccc(CN3CCc4ccccc4C3)cc2)c1	inconclusive: 9.47 µM [inhibitor, partial curve, poor fit]
